# Source: the supplement of paper PMC8728848
# The other results are listed elsewhere or left out.
# Tests used:
# Assay in all cases: glycan array binding signal (z-score within array); higher = stronger binding
# Settings in all cases: glycan notation: IUPAC condensed, linker removed
# [1] = target: Neu5Ac(a2-3)Gal(b1-3)GlcNAc6S
# Method in brief: (§1)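 Glycan array data came from 3228 arrays in the Consortium for Functional Glycomics database, and only arrays with an available protein sequence were kept. Glycan names were put into IUPAC-condensed notation, and columns mapping to the same glycan were averaged. The binding signal is a within-array Z-score, averaged across arrays of one protein sequence run at different concentrations or buffers and across linkers. A negative Z-score can be read as non-binding.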
# [2] = target: Neu5Ac(a2-3)Gal(b1-3)[Fuc(a1-4)]GlcNAc
# Method in brief: as §1
# [3] = target: Neu5Ac(a2-3)Gal(b1-3)[Fuc(a1-4)]GlcNAc(b1-3)Gal(b1-3)[Fuc(a1-4)]GlcNAc
# Method in brief: as §1
# [4] = target: Neu5Ac(a2-3)Gal(b1-3)[Fuc(a1-4)]GlcNAc(b1-3)Gal(b1-4)[Fuc(a1-3)]GlcNAc
# Method in brief: as §1
# [5] = target: Neu5Ac(a2-3)Gal(b1-3)[GlcNAc(b1-6)]GalNAc
# Method in brief: as §1
# [6] = target: Neu5Ac(a2-3)Gal(b1-3)[Neu5Ac(a2-6)]GalNAc
# Method in brief: as §1
# [7] = target: Neu5Ac(a2-3)Gal(b1-3)[Neu5Ac(a2-6)]GlcNAc(b1-3)[Fuc(a1-3)[Gal(b1-4)]GlcNAc(b1-6)]Gal(b1-4)Glc
# Method in brief: as §1
# [8] = target: Neu5Ac(a2-3)Gal(b1-3)]Neu5Ac(a2-3)Gal(b1-4)]GlcNAc
# Method in brief: as §1
# [9] = target: Neu5Ac(a2-3)Gal(b1-4)Glc
# Method in brief: as §1
# [10] = target: Neu5Ac(a2-3)Gal(b1-4)GlcNAc
# Method in brief: as §1
# [11] = target: Neu5Ac(a2-3)Gal(b1-4)GlcNAc(b1-2)Man
# Method in brief: as §1
# [12] = target: Neu5Ac(a2-3)Gal(b1-4)GlcNAc(b1-2)Man(a1-3)[GlcNAc(b1-4)][Neu5Ac(a2-3)Gal(b1-4)GlcNAc(b1-2)Man(a1-6)]Man(b1-4)GlcNAc(b1-4)GlcNAc
# Method in brief: as §1
# [13] = target: Neu5Ac(a2-3)Gal(b1-4)GlcNAc(b1-2)Man(a1-3)[Neu5Ac(a2-3)Gal(b1-4)GlcNAc(b1-2)Man(a1-6)]Man(b1-4)GlcNAc(b1-4)GlcNAc
# Method in brief: as §1
# [14] = target: Neu5Ac(a2-3)Gal(b1-4)GlcNAc(b1-2)Man(a1-3)[Neu5Ac(a2-3)Gal(b1-4)GlcNAc(b1-2)Man(a1-6)]Man(b1-4)GlcNAc(b1-4)[Fuc(a1-6)]GlcNAc
# Method in brief: as §1
# [15] = target: Neu5Ac(a2-3)Gal(b1-4)GlcNAc(b1-2)Man(a1-3)[Neu5Ac(a2-6)Gal(b1-4)GlcNAc(b1-2)Man(a1-6)]Man(b1-4)GlcNAc(b1-4)GlcNAc
# Method in brief: as §1
# [16] = target: Neu5Ac(a2-3)Gal(b1-4)GlcNAc(b1-2)[Neu5Ac(a2-3)Gal(b1-4)GlcNAc(b1-4)]Man(a1-3)[GlcNAc(b1-4)][Neu5Ac(a2-3)Gal(b1-4)GlcNAc(b1-2)[Neu5Ac(a2-3)Gal(b1-4)GlcNAc(b1-6)]Man(a1-6)]Man(b1-4)GlcNAc(b1-4)GlcNAc
# Method in brief: as §1
# [17] = target: Neu5Ac(a2-3)Gal(b1-4)GlcNAc(b1-2)[Neu5Ac(a2-3)Gal(b1-4)GlcNAc(b1-4)]Man(a1-3)[GlcNAc(b1-4)][Neu5Ac(a2-3)Gal(b1-4)GlcNAc(b1-4)Man(a1-6)]Man(b1-4)GlcNAc(b1-4)GlcNAc
# Method in brief: as §1
# [18] = target: Neu5Ac(a2-3)Gal(b1-4)GlcNAc(b1-2)[Neu5Ac(a2-3)Gal(b1-4)GlcNAc(b1-6)]Man(a1-6)[Neu5Ac(a2-3)Gal(b1-4)GlcNAc(b1-2)Man(a1-3)]Man(b1-4)GlcNAc(b1-4)GlcNAc
# Method in brief: as §1
# [19] = target: Neu5Ac(a2-3)Gal(b1-4)GlcNAc(b1-2)[Neu5Ac(a2-3)Gal(b1-4)GlcNAc(b1-6)]Man(a1-6)[Neu5Ac(a2-3)Gal(b1-4)GlcNAc(b1-2)Man(a1-3)][GlcNAc(b1-4)]Man(b1-4)GlcNAc(b1-4)GlcNAc
# Method in brief: as §1
# [20] = target: Neu5Ac(a2-3)Gal(b1-4)GlcNAc(b1-3)Gal
# Method in brief: as §1
# [21] = target: Neu5Ac(a2-3)Gal(b1-4)GlcNAc(b1-3)Gal(b1-3)GlcNAc
# Method in brief: as §1
# [22] = target: Neu5Ac(a2-3)Gal(b1-4)GlcNAc(b1-3)Gal(b1-4)GlcNAc
# Method in brief: as §1
# [23] = target: Neu5Ac(a2-3)Gal(b1-4)GlcNAc(b1-3)Gal(b1-4)GlcNAc(b1-2)Man(a1-3)[Neu5Ac(a2-3)Gal(b1-4)GlcNAc(b1-3)Gal(b1-4)GlcNAc(b1-2)Man(a1-6)]Man(b1-4)GlcNAc(b1-4)GlcNAc
# Method in brief: as §1
# [24] = target: Neu5Ac(a2-3)Gal(b1-4)GlcNAc(b1-3)Gal(b1-4)GlcNAc(b1-3)Gal(b1-4)GlcNAc
# Method in brief: as §1
# [25] = target: Neu5Ac(a2-3)Gal(b1-4)GlcNAc(b1-3)Gal(b1-4)GlcNAc(b1-3)Gal(b1-4)GlcNAc(b1-2)Man(a1-3)[Neu5Ac(a2-3)Gal(b1-4)GlcNAc(b1-3)Gal(b1-4)GlcNAc(b1-3)Gal(b1-4)GlcNAc(b1-2)Man(a1-6)]GalNAc
# Method in brief: as §1
# [26] = target: Neu5Ac(a2-3)Gal(b1-4)GlcNAc(b1-3)Gal(b1-4)GlcNAc(b1-3)GalNAc
# Method in brief: as §1
# [27] = target: Neu5Ac(a2-3)Gal(b1-4)GlcNAc(b1-3)Gal(b1-4)GlcNAc(b1-3)[Neu5Ac(a2-3)Gal(b1-4)GlcNAc(b1-3)Gal(b1-4)GlcNAc(b1-6)]GalNAc
# Method in brief: as §1
# [28] = target: Neu5Ac(a2-3)Gal(b1-4)GlcNAc(b1-3)Gal(b1-4)GlcNAc(b1-6)[Gal(b1-3)]GalNAc
# Method in brief: as §1
# [29] = target: Neu5Ac(a2-3)Gal(b1-4)GlcNAc(b1-3)Gal(b1-4)[Fuc(a1-3)]GlcNAc
# Method in brief: as §1
# [30] = target: Neu5Ac(a2-3)Gal(b1-4)GlcNAc(b1-3)GalNAc
# Method in brief: as §1
binder,measurement,setting,value
"Arath Fbox (Arabidopsis thaliana), NP_178341.1 (protein) EFTWGRKRRVKSESSPFDSFPEDCISYIISFTNPRDACVAATVSKTFESTVKSDIIWEKFLPADYESLIPPSRVFSSKKELYFSLCNDPVLFDDDKKSVWLEKASGKRCLMLSAMNLSIIWGDNPQYWQWIPIPESRFEKVAKLRDVCWFEIRGRTNTRVLSPRTRYSAYIVFKGVDKCYGFQNVAIEAAVGVVGQEPSRRLICFSEAIRRGRRNVVKPKQREDGWMEIELGEFFNDGGIMDNDEIEMSALETKQLNRKCGLIIQGIEIRPAKILAAAAASFLEQKLISEEDLNSAVDHHHHHH",glycan array binding signal (z-score),[1],-0.336
same,glycan array binding signal (z-score),[2],-0.597
same,glycan array binding signal (z-score),[3],0.221
same,glycan array binding signal (z-score),[4],-0.67
same,glycan array binding signal (z-score),[5],-0.711
same,glycan array binding signal (z-score),[6],-0.499
same,glycan array binding signal (z-score),[7],0.154
same,glycan array binding signal (z-score),[8],1.07
same,glycan array binding signal (z-score),[9],-0.675
same,glycan array binding signal (z-score),[10],-0.387
same,glycan array binding signal (z-score),[11],0.422
same,glycan array binding signal (z-score),[12],-0.75
same,glycan array binding signal (z-score),[13],-0.772
same,glycan array binding signal (z-score),[14],-0.708
same,glycan array binding signal (z-score),[15],-0.749
same,glycan array binding signal (z-score),[16],-0.431
same,glycan array binding signal (z-score),[17],-0.448
same,glycan array binding signal (z-score),[18],-0.525
same,glycan array binding signal (z-score),[19],-0.75
same,glycan array binding signal (z-score),[20],-0.691
same,glycan array binding signal (z-score),[21],-0.752
same,glycan array binding signal (z-score),[22],-0.64
same,glycan array binding signal (z-score),[23],2.64
same,glycan array binding signal (z-score),[24],-0.498
same,glycan array binding signal (z-score),[25],-0.094
same,glycan array binding signal (z-score),[26],-0.281
same,glycan array binding signal (z-score),[27],-0.569
same,glycan array binding signal (z-score),[28],-0.54
same,glycan array binding signal (z-score),[29],-0.365
same,glycan array binding signal (z-score),[30],-0.768
